# Results: ChEMBL document CHEMBL4888484, “Replenishing the malaria drug discovery pipeline: Screening and hit evaluation of the MMV Hit Generation Library 1 (HGL1) against asexual blood stage Plasmodium falciparum ,using a nano luciferase reporter read-out” (2022)
# Out of some 150,000 compounds screened, about 540 (0.36%) showed an effect of 50% or more. Some of the results follow.
# Test system: Plasmodium falciparum
# Assay: Primary screen in NF54 nanoGlo assay, in single point, at 2uM, 72h; a lower Z score goes with more inhibition
# Format: functional, Erythrocyte
# Conditions: timepoint 72 hour
SMILES,% Inhibition,Z score
O=C1CCCN1c1cc(C(=O)N2CCC[C@H]2c2nc3ccccc3s2)ccc1Cl,10%,-1.21
CC1(C)CC(=O)C(c2cc(NS(=O)(=O)c3ccc(Cl)cc3)c3ccccc3c2NS(=O)(=O)c2ccc(Cl)cc2)C(=O)C1,-12%,2.06
CC(C)c1nccn1CC(=O)N(C)[C@@H](C)c1ccc(F)c(F)c1,-1%,0.13
C[C@]1(c2nc(-c3nccc4[nH]ccc34)no2)CCNC(=O)C1,-1%,0.22
Cc1cc(CN2CCC(CF)CC2)n(C)n1,3%,-0.32
O=C(c1nc2sccn2c1-c1ncc[nH]1)N1CCCC1,2%,-0.22
CC[C@](C)(NCCc1ccccc1)c1nnnn1-c1ccc(OC)cc1,-2%,0.32
O=C(Nc1ccc(N2CCCN(Cc3ccc(F)cc3)C2=O)cc1)C1CCC1,-13%,2.65
O=C(c1cccs1)N1CCn2nc(CN3CCC(F)(F)CC3)cc2C1,7%,-1.23
CCCN1C(=O)CC[C@]2(CNC(=O)c3ncoc3-c3cccc(C)c3)CCC[C@@H]12,-5%,0.68
COc1cc(OC)cc(C(=O)N2CCN(c3c(C)n(-c4ccccc4)c(=O)n(C)c3=O)CC2)c1,-6%,0.97
Cc1cccc(S(=O)(=O)CCCn2ccc3ccn(C)c3c2=O)c1,-14%,1.27
COCCn1nnc2c1CCN(C[C@H]1CCC3(COC3)O1)C2,-2%,0.4
O=C(O)[C@]12CCCN(Cc3cccs3)[C@@H]1CCN(c1cnccn1)C2,3%,-0.28
CCc1cnc(CCNC(=O)Nc2cccn(C)c2=O)s1,-4%,0.49
O=C(C1c2ccccc2Oc2ccccc21)N1CCC(n2ccnn2)CC1,-12%,1.34
CN(C)c1ccccc1CNc1cnc2c(c1)COCC2,7%,-1.03
COc1cccc(CNC(=O)c2ccc(S(=O)(=O)N3CCCCCC3)s2)c1,-13%,1.8
CN(Cc1cscn1)C(=O)NCC1(c2ccccc2)CC1,3%,-0.38
Cc1n[nH]c(C)c1CNC(=O)N1CCc2c(F)cc(F)cc2C1,24%,-2.71
C[C@@H](Cc1cccs1)NC(=O)c1cc(-c2ccccc2)on1,-2%,0.25

SMILES,% Inhibition,Z score
Cc1[nH]nc(-c2ccc3c(c2)OCO3)c1NC(=O)c1ccccc1F,-2%,0.22
Cc1nn(C)c(N2CCC2)c1NC(=O)c1nccc2occc12,-5%,0.97
CCO[C@H]1CC(NCCc2ccncc2C)[C@@]12CCCO2 (stereo partly specified),-4%,0.65
CCn1cc(OCc2sc(C)nc2C(F)(F)F)cn1,6%,-0.8
C[C@@H](CNC(=O)c1c[nH]c2cccc(Br)c12)CN1CCCC1=O,-9%,0.99
Cc1ccccc1COc1ccccc1CN1C[C@@H]2[C@H](C1)[C@H]2C(=O)O,-16%,3.16
Cn1cccc1[C@@H](O)CNC(=O)C(=O)NCc1ccc(F)cc1,-12%,2.08
Cc1ccc(NC(=O)N[C@H]2CC(=O)N(c3ccc4c(c3)OCCO4)C2)c(C)c1,9%,-1.25
CN(Cc1nnc[nH]1)C1CN(C(=O)OCc2ccccc2)C[C@H]1O (stereo partly specified),4%,-0.56
CCC(=O)N1CCCCN(C)C(=O)[C@H](C)NC(=O)COc2ccc(cc2OC)C(=O)NCCC1,-13%,1.63
CCN1CCN(C(=O)C2C3C(=O)N(Cc4ccc(C)c(C)c4)C[C@@]34C=C[C@@H]2O4)CC1=O (stereo partly specified),-4%,0.81
CC(C)CS(=O)(=O)CCNc1ncncn1,-5%,0.42
Cc1n[nH]c([C@H]2CCO[C@H]2CN(C)C(=O)c2sc(C)nc2C)n1,-8%,1.66
CCN1c2cc(C(=O)Nc3ccccc3OC)ccc2C(=O)N2CCCCC[C@H]21,1%,-0.11
CCc1cnc(C)nc1N1CCC(N2CCC[C@H](C(=O)NC3CC3)C2)CC1,-9%,1.73
CC(C)NS(=O)(=O)N[C@@H](C)c1csnn1,11%,-1.32
FC(F)(F)c1cnc(NC2CCCCCCC2)c(Cl)c1,4%,-0.61
O=C(Nc1nc(-c2cccs2)cs1)c1sc2ccccc2c1Cl,8%,-1.04
COc1ccc2c(c1)-c1onc(C(=O)N(C)C3CCCCC3)c1CC2,-2%,0.33
Cc1cccnc1CCNCc1c(C(=O)N2C[C@@H](C)O[C@@H](C)C2)nc2ccc(Cl)cn12,-17%,2.59
CC(=O)N1CCC(Oc2ccc(Cl)cc2C(=O)NC2Cc3ccccc3C2)CC1,-5%,0.67

SMILES,% Inhibition,Z score
O=S(=O)(c1cccs1)N1CCN(CCc2ccccn2)CC1,-4%,0.69
CCOC(=O)C1CCN(Cc2cncc(-c3ccc(Cl)c(Cl)c3)c2)CC1,-1%,0.08
CCn1ccc(C(=O)N2CCC[C@@]3(CCC(=O)N(CCOC)C3)C2)cc1=O,-12%,1.62
Cc1ccc(NC(=O)[C@@H]2CCN(c3ccccc3Cc3ccccc3)C2=O)cc1C,-14%,1.77
Clc1ccc2nc(N(Cc3ccccc3)c3ccccc3)nc(-c3ccccc3)c2c1,-3%,0.44
c1ccc(C2=Nc3ccc4ccccc4c3NC(c3ccccc3)=N2)cc1,-7%,0.76
CCCN(CC(=O)OCC)C(=O)c1cnn(C)c1,-3%,0.36
CN(CC1OCCc2ccccc21)C(=O)C1CNC(=O)N1 (stereo unspecified),-5%,1.01
COc1ccccc1CC(=O)N1CC[C@H]2CN(C(C)=O)C[C@@]2(CO)C1,0%,0.05
O=C(c1ccco1)N1CCN(c2nnc(-c3ccccn3)s2)CC1,-21%,4.23
C[C@H](Nc1nc(-c2ccc(N3CCCC3=O)cc2)cs1)c1ccccc1,-7%,0.65
C[C@@H](c1ccon1)N(C)C(=O)c1cc(COc2cccc3cccnc23)on1,-23%,2.02
O=c1[nH]c2ccc(NCc3cc(Cl)ccc3OCc3ccccc3F)cc2[nH]1,2%,-0.36
Cc1ccc(S(=O)(=O)N2CCC[C@H]2c2cccs2)c(Cl)c1,-8%,1.04
O=C(NC[C@@H]1CCCN(C(=O)C2CCC2)C1)C1CCC1,-13%,1.32
O=C(Nc1cc(Cl)ccc1Cl)[C@@H]1CCCN1C(=O)c1cnccn1,3%,-0.4
CC(=O)N[C@H]1C[C@H]2CN(Cc3ccc4c(c3)CCO4)[C@@H](CC(C)C)C(=O)N2C1,6%,-0.91
Cc1nc(-c2ccc(C)c(NC(=O)c3ccc(F)c(C)c3)c2)n[nH]1,-4%,0.65
C[C@H]1CNCCN1C(=O)c1cc(O)nc2ccc(Br)cc12,-11%,1.29
COc1ccc(NC(=O)Cn2ncc(-c3cccc(OC)c3)nc2=O)cc1,2%,-0.24
Cc1ccc(S(=O)(=O)N2CCN(C(=O)c3cc(C4CC4)nc4c3c(C)nn4C)CC2)cc1,-2%,0.2

SMILES,% Inhibition,Z score
O=C(N[C@H]1COc2cc(F)cc(F)c21)c1ccoc1Br,-11%,1.42
COC(C)c1nc(CNC(C)c2cnn(C)c2C)cs1 (stereo unspecified),0%,-0.07
CCN(CC)c1ccc(NC(=O)c2scnc2C)cn1,-12%,1.92
CC(C)(C)CN1CCC[C@@](O)(CNC2CCCCCC2)C1=O,-26%,2.29
COc1ccc(CNC(=O)Cn2c(C)nc3c(c2=O)CN(Cc2ccccc2)CC3)cc1,-1%,0.12
CCC1(CNC(=O)c2[nH]ncc2Cl)CCC1,-3%,0.52
c1cncc(CNCc2ccc3nccnc3c2)c1,7%,-1.17
CC[C@]1(O)CCN(Cc2cnc(N(C)C)s2)C1,-4%,0.39
Cn1ccc2c(-c3ccc(N4CCCC4)nn3)ccnc21,-11%,2.04
CC(C)C[C@H](NC(=O)OC(C)(C)C)c1nnc(S(=O)(=O)Cc2ccccc2F)o1,-11%,0.99
O=C(COc1ccc(F)cc1)N1CCc2n[nH]c(=O)n2CC1,-15%,2.16
CC(C)N1C[C@H](Oc2ccccc2)[C@@H]1C1CCN(C(=O)CC2CCN(C)CC2)CC1,-8%,0.97
C#Cc1cccc(N(CC)Cc2csc(CS(C)(=O)=O)n2)c1,4%,-0.37
N#Cc1ccc(CNC(=O)N2CC3CC=CCC3C2)c(F)c1 (stereo unspecified),-3%,0.61
Cc1ccc(C(=O)N2CCC(C)C3CCCCC32)c(=O)[nH]1 (stereo unspecified),-8%,1.01
CC[C@@H](C(=O)N1CCN(c2cnccn2)CC1)n1cccn1,-5%,0.57
Cc1nn(-c2cc(N3CCOCC3)ncn2)c(C)c1CCC(=O)N1CCN(CCO)CC1,-12%,1.61
CC1CC(NC(=O)N2CCC(CC#N)CC2)CC(C)O1 (stereo unspecified),3%,-0.47
CNC(=O)[C@@H]1CC[C@](C)(C(=O)NCCc2csc(C)c2C)C1(C)C,-17%,2.76
CCOC(=O)c1ncc(NC(=O)c2ccc(S(=O)(=O)N(C)OC)cc2)s1,-4%,0.42
